Reference: PubChem BioAssay AID1347073 (National Center for Advancing Translational Sciences (NCATS), 2019)
Out of some 45,000 compounds screened, about 200 (0.44%) were called active. Inconclusive results (about 7%) are left out. Calls come from the whole dose curve; as a rule, active = well fitted activation curve with a large enough effect; inconclusive = small, poorly fitted or top-dose-only effect; inactive = no such curve, though single readings can be large or run the other way. The list shows a part of the results.
Potency is the fitted concentration of half-maximal effect.

Assay: qHTS of TDP-43 Inhibitors: NCGC Sytravon Library Screen; note: nearly all actives have a fitted effect of over 55% in size; for growth rescue (activation): 0% is about no effect
Conditions: yeast TDP-43 toxicity rescue, BacTiter-Glo growth, 24 h; series mostly up to 46.1 µM; growth rescue (activation): at the top concentration
Procedure, shortened: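 TDP-43-expressing yeast, pregrown in raffinose, seeded at OD600 0.02 in galactose medium with compound for 24 hr at 30 deg C. Growth read by BacTiter-Glo luminescence, so rescue of toxicity appears as activation.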
In the case of `OCC1(Cc2ccc(Cl)cc2)CCN(Cc2ccc3nsnc3c2)CC1`, the “growth rescue (activation)” value is reported as inactive: 8.75%.
For `Cc1ccccc1NCC(=O)N/N=C\c1ccc2c(c1)OCO2`, the “growth rescue (activation)” value was inactive: -8.82%.
With `CCc1ccc(NC(=O)C2CCN(c3nnc(-n4c(C)ccc4C)s3)CC2)cc1` the “growth rescue (activation)” value was inactive: 8.48%.
With `COc1ccc(Oc2ccc(NC(=O)c3ccccc3C)cc2)cc1` the “growth rescue (activation)” value was inactive: 7.08%.
In the case of `CC(Nc1cc(N2CCN(S(=O)(=O)N(C)C)CC2)ccc1[N+](=O)[O-])c1ccccc1` (stereo unspecified), the “growth rescue (activation)” value is reported as inactive: 13.8%.
For `O=C(CSc1nnc(-c2ccc([N+](=O)[O-])cc2)o1)Nc1ccccn1`, the “growth rescue (activation)” value was inactive: -7.54%.
With `CCC1CCCCN1CCCNC(=O)c1cn(CC)c2ccc(S(=O)(=O)N3CCc4ccccc4C3)cc2c1=O` (stereo unspecified) the “growth rescue (activation)” value was inactive: 1.23%.
For `O=C(N/N=C/c1cccnc1)c1ccco1`, the “growth rescue (activation)” value was inactive: 3.05%.
In the case of `CCOC(=O)C1=C(CS(=O)(=O)c2ccc(C)cc2)NC(=O)NC1c1cc(OC)c(OC)c(OC)c1` (stereo unspecified), the “growth rescue (activation)” value is reported as inactive: 9.64%.
For `O=C(NC(=S)NNC(=O)[C@H]1C[C@@H]1c1ccccc1)c1cccc(F)c1`, the Potency was active: 12.6 µM.
With `CC1CCN(CCCCOc2ccc(Cl)cc2)CC1` the “growth rescue (activation)” value was inactive: -1.62%.
In the case of `COc1ccc(-c2n[nH]c(=S)n2N)c(OC)c1`, the “growth rescue (activation)” value is reported as inactive: 1.92%.
With `CCN1/C(=C\C=C2\C(=O)N(c3ccccc3)C(=S)N2C)Sc2ccccc21` the “growth rescue (activation)” value was inactive: -26.1%.
With `CCC(C)NC(=O)CN1C(=O)NC2(CCOc3ccccc32)C1=O` (stereo unspecified) the “growth rescue (activation)” value was inactive: -5.32%.
For `CCCN(CCC)CCCNC(=O)C(NS(=O)(=O)c1ccc2c(c1)CCC(=O)N2)c1ccccc1` (stereo unspecified), the “growth rescue (activation)” value was inactive: -1.99%.
For `O=C(C1CCN(Cc2ccc(Cl)cc2)CC1)N1CCN(C(c2ccccc2)c2ccccc2)CC1`, the “growth rescue (activation)” value was inactive: -1.36%.
With `NC(=O)c1ccc2c(c1)OCCO2` the “growth rescue (activation)” value was inactive: -9.01%.
In the case of `OC(CN1CCN(Cc2ccc3c(c2)OCO3)CC1)c1c[nH]c2ccccc12` (stereo unspecified), the “growth rescue (activation)” value is reported as inactive: 29%.
For `O=C(N/N=C/c1cc(Cl)ccc1O)C(=O)Nc1ccccc1OC(F)(F)C(F)F`, the “growth rescue (activation)” value was inactive: 4.06%.
With `CCC(Oc1ccccc1)C(=O)Nc1ccccc1C(=O)N1CCCCC1` (stereo unspecified) the “growth rescue (activation)” value was inactive: 14.5%.
For `N#CCCn1cc(C(=O)Nc2ccc(C(=O)O)cc2)c(-c2cc3ccccc3o2)n1`, the “growth rescue (activation)” value was inactive: 1.33%.
With `CC(C)=C1C2CCC1C(C(=O)Nc1cc(C)cc(C)c1)C2C(=O)O` (stereo unspecified) the “growth rescue (activation)” value was inactive: 29.4%.
For `O=[N+]([O-])c1cc([N+](=O)[O-])c2oc(-c3ccccc3)c(Br)c2c1O`, the “growth rescue (activation)” value was inactive: -85.2%.
In the case of `CCOc1ccccc1NC(=O)CSc1nnc(C2CC2)n1CC`, the “growth rescue (activation)” value is reported as inactive: 6.69%.
With `Cc1[nH]c2ccccc2c1C(=O)/C=C/c1ccccc1Cl` the “growth rescue (activation)” value was inactive: 12.7%.
For `Nc1ccc2nc(CCCCCCc3nc4ccc(N)cc4[nH]3)[nH]c2c1`, the “growth rescue (activation)” value was inactive: 8.36%.
For `O=C(CCC(=O)Nc1ccccc1Cl)NNC(=O)NC1CCCCC1`, the “growth rescue (activation)” value was inactive: -10.7%.
In the case of `CCc1ccc(/C=C(\Cl)c2nc3cc(Cl)ccc3c(=O)[nH]2)cc1`, the “growth rescue (activation)” value is reported as inactive: 16.7%.
For `C/C(CC(=O)NC(C)(C)C)=N\NC(N)=S`, the “growth rescue (activation)” value was inactive: 5.39%.
In the case of `CCOC(=O)C1=C(c2ccccc2)N=C2SCC(=O)N2C1c1ccc2c(c1)OCO2` (stereo unspecified), the “growth rescue (activation)” value is reported as inactive: 5.96%.
In the case of `COc1ccc(Br)c2c1-c1nc(NC(=O)c3cccc(C)c3)sc1C2`, the “growth rescue (activation)” value is reported as inactive: 4.97%.
For `Cc1nonc1C(=O)N1CCCC(N2CCN(c3ccc(F)cc3)CC2)C1` (stereo unspecified), the “growth rescue (activation)” value was inactive: -1.4%.
In the case of `CCN(CC)CCCN(C)C(=O)Cn1nc(Cc2ccncc2)c2ccccc2c1=O`, the “growth rescue (activation)” value is reported as inactive: 0.147%.
For `O=C(CN1CCC(NC(=O)Nc2ccc(F)cc2)CC1)Nc1ccccc1[N+](=O)[O-]`, the “growth rescue (activation)” value was inactive: -0.226%.
For `COc1ccc(-c2cc(CS(=O)(=O)c3ccccc3)on2)cc1`, the “growth rescue (activation)” value was inactive: 20.6%.
With `CCN(CC)CCNC(=O)Cn1ncc2ccccc2c1=O` the “growth rescue (activation)” value was inactive: 3.47%.
In the case of `O=C(N/N=C/c1cccc([N+](=O)[O-])c1)c1nc2ccccc2c(=O)[nH]1`, the “growth rescue (activation)” value is reported as inactive: 7.83%.
For `CN(C)S(=O)(=O)c1cccc(NC(=S)NC23CC4CC(CC(C4)C2)C3)c1`, the “growth rescue (activation)” value was inactive: 25%.
With `O=C(NNC(=O)C1CCN(c2ncccn2)CC1)c1ccc(F)cc1` the “growth rescue (activation)” value was inactive: 3.65%.
With `COc1ccc(CC2(CO)CCN(C(C)Cc3ccc(Cl)cc3)CC2)cc1` (stereo unspecified) the “growth rescue (activation)” value was inactive: -12.8%.
With `Cc1ccc(S(=O)(=O)Nc2nc3ccccc3nc2N2CCOCC2)cc1` the “growth rescue (activation)” value was inactive: 11.3%.
With `COCCNC(=O)C(c1ccc(F)cc1)N(C(=O)CCC(=O)Nc1nccs1)c1ccc(C)cc1` (stereo unspecified) the “growth rescue (activation)” value was inactive: 0.576%.
In the case of `Cc1noc(C)c1COc1ccc(C(=O)NCC(c2c(F)cccc2Cl)N(C)C)cc1` (stereo unspecified), the “growth rescue (activation)” value is reported as inactive: 13.2%.
With `COc1ccc(C(C(=O)NC2CCCCC2)N(Cc2cccnc2)C(=O)c2snc(C(N)=O)c2N)cc1` (stereo unspecified) the “growth rescue (activation)” value was inactive: -3.22%.
For `CCOc1ccc(S(=O)(=O)N(C)c2ccc(OCC(=O)NCC3CCCCC3)cc2)cc1`, the “growth rescue (activation)” value was inactive: 9.74%.
In the case of `Cc1ccc(N(NC(=O)C(O)(c2ccccc2)c2ccccc2)C(=O)CCl)cc1`, the “growth rescue (activation)” value is reported as inactive: 16.3%.
For `CCOc1ccc(S(=O)(=O)N2CCC(C(=O)NCc3ccncc3)CC2)cc1Cl`, the “growth rescue (activation)” value was inactive: 15.2%.
In the case of `CCc1ccccc1-n1nnnc1SCC(=O)Nc1cc(C)on1`, the “growth rescue (activation)” value is reported as inactive: -7.3%.
For `COc1ccc(/C=C/C(=O)NC(=S)Nc2cc3oc4ccccc4c3cc2OC)cc1`, the “growth rescue (activation)” value was inactive: 6.07%.
For `COc1ccc2nc(C)cc(NCc3ccc(F)cc3)c2c1`, the “growth rescue (activation)” value was inactive: 16.4%.
In the case of `Cc1cc(=O)[nH]c(/N=C(\N)Nc2ccc(SC(F)F)cc2)n1`, the “growth rescue (activation)” value is reported as inactive: 12.8%.
